{"source": "the supplement of paper PMC8728848", "assay_in_all_cases": "glycan array binding signal (z-score within array); higher = stronger binding", "conditions_in_all_cases": "glycan notation: IUPAC condensed, linker removed", "key": {"[1]": {"target": "Gal(b1-4)GalNAc(b1-3)[Fuc(a1-2)]Gal(b1-4)GlcNAc", "summary_of_the_method": "(§1)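 The binding signal is a Z-score computed within each array and averaged over linkers. Arrays of the same protein sequence at different concentrations or buffers were also averaged together. Data originate from 3228 arrays in the Consortium for Functional Glycomics database, kept only where the protein sequence was available.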"}, "[2]": {"target": "Gal(b1-4)Glc", "summary_of_the_method": "as §1"}, "[3]": {"target": "Gal(b1-4)Glc6S", "summary_of_the_method": "as §1"}, "[4]": {"target": "Gal(b1-4)GlcNAc", "summary_of_the_method": "as §1"}, "[5]": {"target": "Gal(b1-4)GlcNAc(a1-6)Gal(b1-4)GlcNAc", "summary_of_the_method": "as §1"}, "[6]": {"target": "Gal(b1-4)GlcNAc(b1-2)Man", "summary_of_the_method": "as §1"}, "[7]": {"target": "Gal(b1-4)GlcNAc(b1-2)Man(a1-3)Man(b1-4)GlcNAc(b1-4)GlcNAc", "summary_of_the_method": "as §1"}, "[8]": {"target": "Gal(b1-4)GlcNAc(b1-2)Man(a1-3)[Gal(b1-4)GlcNAc(b1-2)Man(a1-6)]Man(b1-4)GlcNAc(b1-4)GlcNAc", "summary_of_the_method": "as §1"}, "[9]": {"target": "Gal(b1-4)GlcNAc(b1-2)Man(a1-3)[Gal(b1-4)GlcNAc(b1-2)Man(a1-6)]Man(b1-4)GlcNAc(b1-4)[Fuc(a1-6)]GlcNAc", "summary_of_the_method": "as §1"}, "[10]": {"target": "Gal(b1-4)GlcNAc(b1-2)Man(a1-3)[Gal(b1-4)GlcNAc(b1-2)Man(a1-6)][Gal(b1-4)GlcNAc(b1-4)]Man(b1-4)GlcNAc(b1-4)[Fuc(a1-6)]GlcNAc", "summary_of_the_method": "as §1"}, "[11]": {"target": "Gal(b1-4)GlcNAc(b1-2)Man(a1-3)[Gal(b1-4)GlcNAc(b1-2)Man(a1-6)][GlcNAc(b1-4)]Man(b1-4)GlcNAc(b1-4)[Fuc(a1-6)]GlcNAc", "summary_of_the_method": "as §1"}, "[12]": {"target": "Gal(b1-4)GlcNAc(b1-2)Man(a1-3)[GlcNAc(b1-2)Man(a1-6)]Man(b1-4)GlcNAc(b1-4)GlcNAc", "summary_of_the_method": "as §1"}, "[13]": {"target": "Gal(b1-4)GlcNAc(b1-2)Man(a1-3)[GlcNAc(b1-4)][Gal(b1-4)GlcNAc(b1-2)Man(a1-6)]Man(b1-4)GlcNAc(b1-4)GlcNAc", "summary_of_the_method": "as §1"}, "[14]": {"target": "Gal(b1-4)GlcNAc(b1-2)Man(a1-3)[Man(a1-6)]Man(b1-4)GlcNAc(b1-4)GlcNAc", "summary_of_the_method": "as §1"}, "[15]": {"target": "Gal(b1-4)GlcNAc(b1-2)Man(a1-6)Man(b1-4)GlcNAc(b1-4)GlcNAc", "summary_of_the_method": "as §1"}, "[16]": {"target": "Gal(b1-4)GlcNAc(b1-2)Man(a1-6)[GlcNAc(b1-2)Man(a1-3)]Man(b1-4)GlcNAc(b1-4)GlcNAc", "summary_of_the_method": "as §1"}, "[17]": {"target": "Gal(b1-4)GlcNAc(b1-2)Man(a1-6)[Man(a1-3)]Man(b1-4)GlcNAc(b1-4)GlcNAc", "summary_of_the_method": "as §1"}, "[18]": {"target": "Gal(b1-4)GlcNAc(b1-2)[Gal(b1-4)GlcNAc(b1-4)]Man(a1-3)[Gal(b1-4)GlcNAc(b1-2)Man(a1-6)]Man(b1-4)GlcNAc(b1-4)GlcNAc", "summary_of_the_method": "as §1"}, "[19]": {"target": "Gal(b1-4)GlcNAc(b1-2)[Gal(b1-4)GlcNAc(b1-4)]Man(a1-3)[Gal(b1-4)GlcNAc(b1-2)[Gal(b1-4)GlcNAc(b1-6)]Man(a1-6)]Man(b1-4)GlcNAc(b1-4)GlcNAc", "summary_of_the_method": "as §1"}, "[20]": {"target": "Gal(b1-4)GlcNAc(b1-2)[Gal(b1-4)GlcNAc(b1-4)]Man(a1-3)[GlcNAc(b1-4)][Gal(b1-4)GlcNAc(b1-2)Man(a1-6)]Man(b1-4)GlcNAc(b1-4)GlcNAc", "summary_of_the_method": "as §1"}, "[21]": {"target": "Gal(b1-4)GlcNAc(b1-2)[Gal(b1-4)GlcNAc(b1-4)]Man(a1-3)[GlcNAc(b1-4)][Gal(b1-4)GlcNAc(b1-2)[Gal(b1-4)GlcNAc(b1-6)]Man(a1-6)]Man(b1-4)GlcNAc(b1-4)GlcNAc", "summary_of_the_method": "as §1"}, "[22]": {"target": "Gal(b1-4)GlcNAc(b1-2)[Gal(b1-4)GlcNAc(b1-6)]Man(a1-6)[Gal(b1-4)GlcNAc(b1-2)Man(a1-3)]Man(b1-4)GlcNAc(b1-4)GlcNAc", "summary_of_the_method": "as §1"}, "[23]": {"target": "Gal(b1-4)GlcNAc(b1-2)[Gal(b1-4)GlcNAc(b1-6)]Man(a1-6)[Gal(b1-4)GlcNAc(b1-2)Man(a1-3)]Man(b1-4)GlcNAc(b1-4)[Fuc(a1-6)]GlcNAc", "summary_of_the_method": "as §1"}, "[24]": {"target": "Gal(b1-4)GlcNAc(b1-2)[Gal(b1-4)GlcNAc(b1-6)]Man(a1-6)[GlcNAc(b1-4)][Gal(b1-4)GlcNAc(b1-2)Man(a1-3)]Man(b1-4)GlcNAc(b1-4)GlcNAc", "summary_of_the_method": "as §1"}, "[25]": {"target": "Gal(b1-4)GlcNAc(b1-2)[Gal(b1-4)GlcNAc(b1-6)]Man(a1-6)[GlcNAc(b1-4)][Gal(b1-4)GlcNAc(b1-2)[Gal(b1-4)GlcNAc(b1-4)]Man(a1-3)]Man(b1-4)GlcNAc(b1-4)[Fuc(a1-6)]GlcNAc", "summary_of_the_method": "as §1"}, "[26]": {"target": "Gal(b1-4)GlcNAc(b1-3)Gal(b1-3)GalNAc", "summary_of_the_method": "as §1"}, "[27]": {"target": "Gal(b1-4)GlcNAc(b1-3)Gal(b1-3)GlcNAc", "summary_of_the_method": "as §1"}, "[28]": {"target": "Gal(b1-4)GlcNAc(b1-3)Gal(b1-4)Glc", "summary_of_the_method": "as §1"}, "[29]": {"target": "Gal(b1-4)GlcNAc(b1-3)Gal(b1-4)GlcNAc", "summary_of_the_method": "as §1"}, "[30]": {"target": "Gal(b1-4)GlcNAc(b1-3)Gal(b1-4)GlcNAc(b1-2)Man(a1-3)[Gal(b1-4)GlcNAc(b1-3)Gal(b1-4)GlcNAc(b1-2)Man(a1-6)]Man(b1-4)GlcNAc(b1-4)GlcNAc", "summary_of_the_method": "as §1"}, "[31]": {"target": "Gal(b1-4)GlcNAc(b1-3)Gal(b1-4)GlcNAc(b1-2)Man(a1-3)[Gal(b1-4)GlcNAc(b1-3)Gal(b1-4)GlcNAc(b1-2)Man(a1-6)]Man(b1-4)GlcNAc(b1-4)[Fuc(a1-6)]GlcNAc", "summary_of_the_method": "as §1"}, "[32]": {"target": "Gal(b1-4)GlcNAc(b1-3)Gal(b1-4)GlcNAc(b1-2)[Gal(b1-4)GlcNAc(b1-3)Gal(b1-4)GlcNAc(b1-6)]Man(a1-6)[Gal(b1-4)GlcNAc(b1-3)Gal(b1-4)GlcNAc(b1-2)Man(a1-3)]Man(b1-4)GlcNAc(b1-4)GlcNAc", "summary_of_the_method": "as §1"}, "[33]": {"target": "Gal(b1-4)GlcNAc(b1-3)Gal(b1-4)GlcNAc(b1-2)[Gal(b1-4)GlcNAc(b1-3)Gal(b1-4)GlcNAc(b1-6)]Man(a1-6)[Gal(b1-4)GlcNAc(b1-3)Gal(b1-4)GlcNAc(b1-2)Man(a1-3)]Man(b1-4)GlcNAc(b1-4)[Fuc(a1-6)]GlcNAc", "summary_of_the_method": "as §1"}, "[34]": {"target": "Gal(b1-4)GlcNAc(b1-3)Gal(b1-4)GlcNAc(b1-3)Gal(b1-4)GlcNAc", "summary_of_the_method": "as §1"}, "[35]": {"target": "Gal(b1-4)GlcNAc(b1-3)Gal(b1-4)GlcNAc(b1-3)Gal(b1-4)GlcNAc(b1-2)Man(a1-3)[Gal(b1-4)GlcNAc(b1-3)Gal(b1-4)GlcNAc(b1-3)Gal(b1-4)GlcNAc(b1-2)Man(a1-6)]Man(b1-4)GlcNAc(b1-4)GlcNAc", "summary_of_the_method": "as §1"}, "[36]": {"target": "Gal(b1-4)GlcNAc(b1-3)Gal(b1-4)GlcNAc(b1-3)Gal(b1-4)GlcNAc(b1-2)Man(a1-3)[Gal(b1-4)GlcNAc(b1-3)Gal(b1-4)GlcNAc(b1-3)Gal(b1-4)GlcNAc(b1-2)Man(a1-6)]Man(b1-4)GlcNAc(b1-4)[Fuc(a1-6)]GlcNAc", "summary_of_the_method": "as §1"}, "[37]": {"target": "Gal(b1-4)GlcNAc(b1-3)Gal(b1-4)GlcNAc(b1-3)Gal(b1-4)GlcNAc(b1-2)[Gal(b1-4)GlcNAc(b1-3)Gal(b1-4)GlcNAc(b1-3)Gal(b1-4)GlcNAc(b1-6)]Man(a1-6)[Gal(b1-4)GlcNAc(b1-3)Gal(b1-4)GlcNAc(b1-3)Gal(b1-4)GlcNAc(b1-2)Man(a1-3)]Man(b1-4)GlcNAc(b1-4)[Fuc(a1-6)]GlcNAc", "summary_of_the_method": "as §1"}}, "note": "The list shows a part of the results.", "data": [{"binder": "DC-ASGPR-short (Homo sapiens) (protein) MTRTYENFQYLENKVKVQGFKNGPLPLQSLLQRLRSGPCHLLLSLGLGLLLLVIICVVGFQNSKFQRDLVTLRTDFSNFTSNTVAEIQALTSQGSSLEETIASLKAEVEGFKQERQAVHSEMLLRVQQLVQDLKKLTCQVATLNNNASTEGTCCPVNWVEHQDSCYWFSHSGMSWAEAEKYCQLKNAHLVVINSREEQNFVQKYLGSAYTWMGLSDPEGAWKWVDGTDYATGFQNWKPGQPDDWQGHGLGGGEDCAHFHPDGRWNDDVCQRPYHWVCEAGLGQTSQESH", "values": [{"measurement": "glycan array binding signal (z-score)", "setting": "[1]", "value": -0.277}, {"measurement": "glycan array binding signal (z-score)", "setting": "[2]", "value": -0.265}, {"measurement": "glycan array binding signal (z-score)", "setting": "[3]", "value": -0.266}, {"measurement": "glycan array binding signal (z-score)", "setting": "[4]", "value": -0.272}, {"measurement": "glycan array binding signal (z-score)", "setting": "[5]", "value": -0.282}, {"measurement": "glycan array binding signal (z-score)", "setting": "[6]", "value": 0.188}, {"measurement": "glycan array binding signal (z-score)", "setting": "[7]", "value": -0.284}, {"measurement": "glycan array binding signal (z-score)", "setting": "[8]", "value": -0.276}, {"measurement": "glycan array binding signal (z-score)", "setting": "[9]", "value": -0.28}, {"measurement": "glycan array binding signal (z-score)", "setting": "[10]", "value": -0.276}, {"measurement": "glycan array binding signal (z-score)", "setting": "[11]", "value": -0.285}, {"measurement": "glycan array binding signal (z-score)", "setting": "[12]", "value": -0.283}, {"measurement": "glycan array binding signal (z-score)", "setting": "[13]", "value": -0.282}, {"measurement": "glycan array binding signal (z-score)", "setting": "[14]", "value": -0.16}, {"measurement": "glycan array binding signal (z-score)", "setting": "[15]", "value": -0.281}, {"measurement": "glycan array binding signal (z-score)", "setting": "[16]", "value": -0.227}, {"measurement": "glycan array binding signal (z-score)", "setting": "[17]", "value": -0.271}, {"measurement": "glycan array binding signal (z-score)", "setting": "[18]", "value": -0.285}, {"measurement": "glycan array binding signal (z-score)", "setting": "[19]", "value": -0.283}, {"measurement": "glycan array binding signal (z-score)", "setting": "[20]", "value": -0.267}, {"measurement": "glycan array binding signal (z-score)", "setting": "[21]", "value": -0.296}, {"measurement": "glycan array binding signal (z-score)", "setting": "[22]", "value": -0.283}, {"measurement": "glycan array binding signal (z-score)", "setting": "[23]", "value": -0.277}, {"measurement": "glycan array binding signal (z-score)", "setting": "[24]", "value": -0.282}, {"measurement": "glycan array binding signal (z-score)", "setting": "[25]", "value": -0.281}, {"measurement": "glycan array binding signal (z-score)", "setting": "[26]", "value": -0.694}, {"measurement": "glycan array binding signal (z-score)", "setting": "[27]", "value": -0.286}, {"measurement": "glycan array binding signal (z-score)", "setting": "[28]", "value": -0.265}, {"measurement": "glycan array binding signal (z-score)", "setting": "[29]", "value": -0.281}, {"measurement": "glycan array binding signal (z-score)", "setting": "[30]", "value": -0.244}, {"measurement": "glycan array binding signal (z-score)", "setting": "[31]", "value": -0.229}, {"measurement": "glycan array binding signal (z-score)", "setting": "[32]", "value": 0.171}, {"measurement": "glycan array binding signal (z-score)", "setting": "[33]", "value": -0.221}, {"measurement": "glycan array binding signal (z-score)", "setting": "[34]", "value": -0.28}, {"measurement": "glycan array binding signal (z-score)", "setting": "[35]", "value": -0.221}, {"measurement": "glycan array binding signal (z-score)", "setting": "[36]", "value": -0.222}, {"measurement": "glycan array binding signal (z-score)", "setting": "[37]", "value": -0.198}]}]}
